The whole screen tested about 150,000 compounds, of which about 540 (0.36%) showed an effect of 50% or more. The list shows a part of the results.
The compounds below were run on Plasmodium falciparum (assay: Primary screen in NF54 nanoGlo assay, in single point, at 2uM, 72h; a lower Z score goes with more inhibition). Settings: timepoint 72 hour.
Type: functional, Erythrocyte

| Compound | % Inhibition | Z score |
| --- | --- | --- |
| Cc1ccc(-c2n[nH]c(NC(=O)Cc3ccc(C)c(O)c3)c2C)o1 | -2% | 0.22 |
| CC(C)S(=O)(=O)N1CC(Oc2ccc(-c3noc(-c4cccnc4)n3)cc2)C1 | -16% | 3.04 |
| O=C(Nc1ccccc1)N1C[C@@H]2COCCN2C2(C1)CN(C(=O)c1ccc(C(F)(F)F)cc1)C2 | 8% | -1.08 |
| CC(C)CCC(=O)Nc1ncccc1O | -11% | 1.18 |
| CCc1cnc(CNC(=O)Nc2cccc3oc(C)nc23)o1 | -1% | 0.05 |
| Cc1ccc(NC(=O)Nc2snnc2C(=O)Nc2cc(Cl)ccc2O)cc1 | 3% | -0.37 |
| CCCc1nc(C)c(CNc2cccc(C(=O)NC)c2C)o1 | -8% | 1.49 |
| Cc1cnc(C)c(N2CC[C@H]3[C@H](CCC(=O)N3CCc3c[nH]cn3)C2)n1 | -3% | 0.55 |
| CCc1cc(N2CCC(N3C[C@H]4CCN(C)[C@H]4C3)CC2)nc(N2CCCC2)n1 | 6% | -0.65 |
| CC[C@@H](C(=O)NCCCN1CCCC1)n1nc(C)c2nn(-c3ccccc3)c(C)c2c1=O | -2% | 0.23 |
| C[C@@H](C1CCCCC1)N(C)Cc1ncnn1CCF | -7% | 1.19 |
| COc1cccc(CN[C@H]2[C@H](O)[C@@H](n3cc(-c4ccccc4)cn3)[C@@H]3OC[C@H]2O3)c1 | -6% | 0.71 |
| CC[C@H](NC(=O)c1cc[nH]c1C1CC1)C1CCOCC1 | -8% | 0.82 |
| CCOc1cc(CNC2CCN(C(C)=O)CC2)ccc1OCc1c(F)cccc1Cl | 38% | -4.95 |
| CCc1n[nH]c2c1CN(Cc1cccc(OC)c1O[C@@H](C)C(=O)O)CC2 | -17% | 2.21 |
| O=C(c1ccc2c(c1)n(CC1CC1)c(=O)n2C1CCCCC1)N1CCNCC1 | -4% | 0.35 |
| COC1CCCCC1OC(=O)c1ccc(C(N)=O)cc1 (stereo not drawn) | -14% | 1.89 |
| CC(C)c1nn(C)c(Cl)c1C(=O)N[C@@H](C)C1CCCC1 | -5% | 0.67 |
| COc1ccc(-c2cnc3n2CCCC3)cc1 | -23% | 2.75 |
| O=C1c2ccccc2C(=O)N1c1ccc(S(=O)(=O)N2CCN(c3ccc(Cl)cc3)CC2)cc1 | 1% | -0.22 |
| O=c1cnccn1Cc1ccc(F)cc1F | -1% | 0.16 |

| Compound | % Inhibition | Z score |
| --- | --- | --- |
| Brc1cnn(Cc2nccn2Cc2ccccc2)c1 | -1% | 0.25 |
| O=C(Cc1ccccn1)NCCN1CCCC[C@@H]1CO | -11% | 1.48 |
| O=C(Nc1ccc(S(=O)(=O)N2CCOCC2)cc1)c1cc2c(s1)CCCC2 | 4% | -0.49 |
| Cc1ccc(CN2c3ccc(F)cc3OC[C@@H]2CC(=O)N2CCCC2)cc1 | -6% | 0.87 |
| Cc1noc(C)c1CCN[C@H](C)c1ccc(F)cc1Cl | 2% | -0.2 |
| CC(C)=CCN1CC2(CCN(C(=O)c3ccc4cccnc4c3)CC2)CC1=O | -16% | 1.58 |
| Cc1nn(C(C)C)c(C)c1CN1CCC[C@H](C(=O)c2cccc3ccccc23)C1 | -18% | 1.93 |
| CCn1nccc1CNC1CCC2CN(Cc3ccccc3)CC21 (stereo not drawn) | 2% | -0.18 |
| Nc1cc(C(=O)N2CCn3nc(CCC(=O)NC4CCCC4)cc3C2)n[nH]1 | 6% | -0.99 |
| CC1=NN(CC(C)C)C(=O)[C@H]1C(=O)Nc1ccccc1 | -3% | 0.56 |
| O=C1NCC[C@@H]1N1CCc2ccc(Br)cc21 | 1% | -0.17 |
| CCC=C(C)C(=O)NCCCN1CCCC1 | 3% | -0.43 |
| O=C(N[C@@H](Cc1c[nH]c2ccccc12)c1nnc2n1CCCCC2)c1cccs1 | -14% | 1.37 |
| COc1ccc(C2=Nc3ccc(S(=O)(=O)N4CCOCC4)cc3S(=O)(=O)N2)cc1 | 38% | -5.56 |
| O=C(Nc1ccc(Cl)cc1)N1CC=CCC1 | 2% | -0.48 |
| CC(C)[C@H]1C=CCN1C(=O)c1cccc(-c2cnn(CC3CC3)c2)c1 | -17% | 1.71 |
| O=C(C1CC1C1CC1)N1CCC2(CCC(O)CC2)CC1 (stereo not drawn) | -10% | 0.98 |
| CCCn1cc(NC(=O)Cn2cc(-c3ccc4nc(C)[nH]c(=O)c4c3)cn2)nn1 | -16% | 2.31 |
| COC(=O)N[C@@H](C)C(=O)N(C)Cc1ncon1 | 5% | -0.99 |
| O=C(N[C@H]1C[C@H](c2ccc(F)cc2F)C1)c1coc(CO)c1 | -8% | 1.46 |
| O=C(Nc1ccccc1Cl)c1cn(C[C@H](O)c2ccsc2)nn1 | -9% | 1.7 |

| Compound | % Inhibition | Z score |
| --- | --- | --- |
| Cc1cc(C)n(CCC(=O)N2CCC3(CC2)C[C@@H](N(C)Cc2ccccc2)CCO3)n1 | -8% | 1.09 |
| COc1ccc(F)cc1C(NC(=O)COc1ccccc1)[C@H]1C[C@@H](O)C1 (stereo partly drawn) | 33% | -3.59 |
| Cn1cc2c(C(F)F)cc(=O)n(CCC(=O)Nc3ccccc3C#N)c2n1 | 32% | -3.62 |
| CCN1C[C@H](NS(=O)(=O)c2ccnn2CC)[C@@H](OC)C1 | 10% | -1.38 |
| Cc1nnc(CN(C)Cc2nc(-c3cc(F)ccc3F)oc2C)o1 | -15% | 2.02 |
| CCN(CCOc1ccc(Cl)cc1)C(=O)c1ccc2nc(C)cn2c1 | 21% | -2.82 |
| CC(=O)NC1CCN(Cc2cnc3c(-c4ccccc4)cnn3c2)CC1 | 4% | -0.82 |
| CC1CN(CC(=O)N(C2CC2)C(C)C(C)C)CC(C)(C)O1 (stereo not drawn) | -18% | 3.38 |
| CCn1nc(C)cc1C(=O)Nc1nc2ccc(Br)cn2n1 | -2% | 0.21 |
| Cn1cc(S(=O)(=O)NC[C@@](O)(c2cccs2)C2CC2)cn1 | -18% | 3.15 |
| C#CCNC(=O)[C@H](C)Oc1cccc(C)c1F | 19% | -2.21 |
| COCCCN1CC(=O)N[C@@H]2CN(C(=O)c3cccc(C)n3)CC[C@@H]2OCc2cccc(c2)Oc2ccc(cc2OC)CCC1=O | -15% | 2.69 |
| COc1ccc(N2CCN(C(=O)CN3CCN(C)C[C@@H]3C)CC2)cc1 | 1% | -0.11 |
| CN(C(=O)CN1CCCCCC1=O)c1cccc2[nH]cnc12 | 7% | -1.23 |
| CCC[C@]1(CO)CCN(Cc2ccsc2C(=O)O)C1 | -5% | 0.72 |
| Cc1nsc2ccc(O)c(Br)c12 | -5% | 0.6 |
| CC(C(=O)NCC1CCCO1)S(=O)(=O)c1ccc(F)c(Cl)c1 (stereo not drawn) | 15% | -1.98 |
| Cc1ccc(NC(=O)c2ccc(S(=O)(=O)c3ccc(Cl)cc3)o2)cc1 | -11% | 1.51 |
| CCOC1CC(NS(C)(=O)=O)C1(CC)CC (stereo not drawn) | 2% | -0.3 |
| CC(C(=O)Nc1cc(C2CCCOC2)nn1C)c1cccs1 (stereo not drawn) | -4% | 0.55 |
| CNC(=O)C1=CCN(C(=O)c2ccc(F)cc2F)CC1 | -4% | 0.72 |

| Compound | % Inhibition | Z score |
| --- | --- | --- |
| O=S(=O)(c1ccc(F)cc1)N1CCC[C@](CC2CC2)(c2noc(-c3ccncc3)n2)C1 | 2% | -0.26 |
| CNc1ncc(C(=O)Nc2ccc(OCc3cccnc3)cc2)s1 | -17% | 1.9 |
| Cn1nnc2cc(-c3noc([C@H]4CC(=O)N(C5CCCC5)C4)n3)ccc21 | -18% | 1.66 |
| CCNc1cc(CNC(=O)Nc2cc(CC)nn2C)ccn1 | 7% | -1.24 |
| Cc1[nH]nc(-c2ccc(C(C)(C)C)cc2)c1NC(=O)COc1ccccc1 | -5% | 0.83 |
| Cn1nccc1C=Cc1nc2cnccc2c(=O)[nH]1 | -14% | 2.2 |
| C[C@@H](Cc1cccs1)C(=O)NCCC(=O)N1CCCCCC1 | -7% | 1.08 |
| O=C(NCc1ccco1)[C@H]1CCC(F)(F)C1 | -11% | 1.54 |
| CCc1ccccc1N(C)S(=O)(=O)c1cc(-c2c(C)nn3c2NC(=O)CCC3=O)ccc1OC | -9% | 1.05 |
| COc1ccc(C(=O)N[C@H]2CC[C@]3(C)CCC([C@H](C)C(=O)N4CCC(C)CC4)[C@H](O)[C@H]3[C@@H]2C)cc1 (stereo partly drawn) | -7% | 1.04 |
| CCCOc1ccnc(CC(=O)NCc2nccs2)n1 | -2% | 0.28 |
| CCN(CC)CC(=O)Nc1ccc(S(N)(=O)=O)cc1 | -7% | 0.95 |
| CC(C)(C)CC(C)(C)Nc1c(-c2ccccn2)nc2ccc(Br)cn12 | 17% | -2.11 |
| O=S(=O)(CCN1CCC[C@H]1c1ccsc1)c1ccccc1 | -11% | 1.39 |
| O=C(C1Cc2ccccc2N1)N1CCCC(CO)C1 (stereo not drawn) | 3% | -0.45 |
| CCN1CCN(c2nc(Nc3ccccc3)c3nccnc3n2)CC1 | -2% | 0.28 |
| CC(C)CN1CCC[C@H](CNC(=O)c2cnc(-c3ccncc3)s2)C1 | -10% | 1.99 |
| O=C(NCCn1ccnc1-c1ccc(CO)o1)c1cccnc1 | -13% | 1.42 |
| O=C(N[C@@H]1CN(CC2CC2)C[C@H]1CO)c1ccccc1 | -9% | 1.29 |
| CCc1nnc(CNC(=O)[C@H]2CCOc3ccccc3C2)s1 | 0% | 0.03 |
| NS(=O)(=O)c1cccc(CCC(=O)N[C@]23CCC[C@H]2OCC3)c1 | 4% | -0.6 |
